Results from the BET-seq Pho4 binding data (Le et al. 2018).
The list shows a part of the results. These are noisy estimates, calculated here from bound and input reads.

target: T1, Pho4 (S. cerevisiae) (UniProt P07270); assay: relative binding free energy (BET-seq); higher = weaker binding; conditions: reference: library average
T1 sequence: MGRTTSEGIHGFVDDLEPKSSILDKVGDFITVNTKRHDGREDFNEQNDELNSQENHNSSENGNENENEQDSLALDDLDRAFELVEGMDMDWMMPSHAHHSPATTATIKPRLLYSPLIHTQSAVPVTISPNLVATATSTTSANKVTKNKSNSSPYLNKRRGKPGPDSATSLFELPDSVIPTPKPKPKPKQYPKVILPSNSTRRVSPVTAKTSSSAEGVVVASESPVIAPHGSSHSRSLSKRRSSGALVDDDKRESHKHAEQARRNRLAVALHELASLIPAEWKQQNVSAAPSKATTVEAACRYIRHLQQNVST

Sequence	relative binding free energy [kcal/mol]
ATTTACACGTGAAGAG	0.17
GTCTTCACGTGTTTCA	0.38
GTAAGCACGTGAGGAT	0.09
GGTGCCACGTGGAAAG	0.08
TGGTTCACGTGCTAGT	0.15
GGGGGCACGTGGTTGC	-0.22
GGCGGCACGTGGGTAC	-0.22
TGTACCACGTGGGGCT	-0.17
AGGTTCACGTGCGGAG	0.18
TTGTTCACGTGTTCGC	0.39
GGTTGCACGTGACTAG	0.17
GCTGGCACGTGTGAGG	0.02
GGTGGCACGTGTCGCT	0
TATTTCACGTGTAGGC	0.3
CGCGGCACGTGGGTAT	-0.26
GAGTTCACGTGGTACT	0.24
CTTATCACGTGGTGTG	0.12
CTGTTCACGTGCTGTG	0.08
TCGGTCACGTGCGTAT	0.03
TTGTACACGTGTAGAC	0.21
GGGTGCACGTGTGTTC	0.1
TAGAACACGTGGGGGC	-0.06
CGGGGCACGTGTGTGA	-0.05
TTCGTCACGTGCGGGG	0.15
CTTGTCACGTGTGTAA	0.19

Sequence	relative binding free energy [kcal/mol]
CGTTGCACGTGATTTG	0
ATTCGCACGTGGGGTG	-0.15
TGTAGCACGTGTTAGA	0.01
GCGTGCACGTGACGGT	0.23
TGGCTCACGTGGAGGA	0.14
GTTGTCACGTGGGATT	0.18
TGGTTCACGTGGATTC	0.4
GGGAGCACGTGATGAT	0.16
TGTAGCACGTGGGCCT	-0.22
TTGTGCACGTGATGCA	0.08
AGATACACGTGAAAGG	0.37
TTTGGCACGTGTTCAA	-0.08
GTGAGCACGTGATGAG	0.14
GGTTACACGTGGGACA	0.03
CTTTTCACGTGTGCTA	0.27
GTGTACACGTGTCGGA	0.14
ATTAGCACGTGTGATT	0
TGATACACGTGGAGGG	0
GTTTCCACGTGGCGGT	0.09
GTATGCACGTGGGTCA	-0.24
TGGAGCACGTGGCCGT	-0.2
TGAGACACGTGGAGGG	0.06
TGACGCACGTGAGGTG	0.02
TTCTACACGTGAGTGA	0.29
GTATGCACGTGGTCTT	-0.11

Sequence	relative binding free energy [kcal/mol]
GATTACACGTGTGGGG	0.2
GTGTTCACGTGATGTA	0.29
TGCGTCACGTGGGCTA	-0.07
TGTCGCACGTGGGACT	-0.17
TGATGCACGTGTCCGT	-0.04
TCCGGCACGTGAGAGG	0.23
TGGAGCACGTGGTAGC	-0.07
TACAGCACGTGTATGT	0
AGTCTCACGTGCTGGT	0.17
GTGCGCACGTGGGCTG	-0.2
GGGGCCACGTGTCCGG	-0.06
TTTTTCACGTGCTGGC	0.21
AAATTCACGTGTAGTA	0.33
CATGTCACGTGGAATG	0.25
TATGGCACGTGGGCGG	-0.23
TTTATCACGTGAGCGG	0.19
TTGCGCACGTGTAGAG	-0.16
AGGCACACGTGCTGGG	-0.03
AGAGGCACGTGTTTAT	-0.15
TGTCACACGTGTATTG	0
TGTTGCACGTGGTAGC	0.03
TAGCGCACGTGTGGTG	-0.15
GGGCACACGTGTGATA	0.25
